Results from PubChem BioAssay AID2060902 (Molecular Pharmacology Branch, DTP, NCI, 2025).
A number of entries come with more than one value. Only these are listed. An entry can have further records. Values given together repeat one measurement in other runs, samples, wells, individuals or studies.

Test system: 485368-065-R3-J5-PDC spheroids with HUVEC/MSC, viability
Test: Anticancer human tumor 485368-065-R3-J5-PDC patient-derived pancreatic carcinoma cell line growth inhibition [RAS]
Conditions: for IC50: compound alone; for viability, T/C: stronger effect = lower value
Excerpt: RAS pathway inhibitors in Combinations in Complex Spheroids
A high-throughput screen of multi-cell type tumor spheroids was designed to identify active combinations of RAS pathway inhibitors and targeted small molecules. Complex spheroids include a stromal component modeled by human endothelial cells (HUVEC) and fibroblasts modeled by human mesenchymal stem cells (MSCs). The concentration ranges selected for each drug and investigational agent were based upon clinically achievable concentrations if the clinical Cmax of the agent was known.
Compounds. The drugs and investigational agents: abemaciclib (NSC768073), cobimetinib (NSC768068), divarasib (GDC6063, NSC841802), docetaxel (NSC628503), GDC-1971 (RLY-1971, NSC841576), gemcitabine (NSC613327), inavolisib (NSC800729), ipatasertib (NSC767898), KB-0742 (NSC834161), MRTX-1133 (NSC836407), osimertinib (NSC779217), RMC-4630 (NSC839698), RMC-6236 (NSC851965), RMC-6291 (NSC852671), Ro-3306 (NSC812927), sapanisertib (NSC764658), SN-38 (NSC673596), staurosporine (NSC755774), SY5609 (NSC837396), and tovorafenib (DAY101, NSC766906), were obtained from the National Cancer Institute (NCI) Developmental Therapeutics Program Chemical Repository. The FDA-approved anticancer drug set is available from the NCI Developmental Therapeutics Program. […] The stock solutions were prepared in dimethyl sulfoxide (DMSO, Sigma-Aldrich, St. Louis, MO, cat. D2650) at 800-fold the tested concentration and stored at -70 degrees C prior to their use. All drugs and investigational agents were tested over a range starting from a high concentration at or near the clinical Cmax and decreasing in half-log increments. If the clinical Cmax for an agent had not been determined, the highest concentration tested was 10 microM.
Cell Culture. All cells were maintained in an incubator at 37 degrees C and 5% CO2 with 95% humidity. The PDC lines were cultured according to standard operating procedures established by the NCI PDMR. All PDCs were thawed and cultured in Matrigel-coated flasks prepared with a working solution of 1X Ham's F-12 nutrient mix, without supplementation (Invitrogen, Waltham, MA, cat. 11765054), 100 U/mL penicillin-streptomycin (Invitrogen, cat. 15140122), and 2.5% Matrigel (Corning Inc., Corning, NY, cat. 354248) for the first three passages. The 362531-283-R-J2-PDC and 782815-120-R-J1-PDC lines were cultured in 6C/Colon 1B media, which includes advanced DMEM/F-12 (Thermo Fisher Scientific, cat. 12634028), 10 mM HEPES (Thermo Fisher Scientific, cat. 15630080), 1X GlutaMAX supplement (Thermo Fisher Scientific, cat. 35050061), 0.1 mg/mL primocin (InvivoGen, San Diego, CA, cat. ant-pm-2), 10% defined fetal bovine serum, heat inactivated (HyClone Laboratories Inc., Logan, UT, cat. SH30070.03HI), 50% L-WRN conditioned media (ATCC, cat. CRL-3276), 1.25 mM N-Acetyl-L-cysteine (Sigma-Aldrich, cat. A9165), 10 mM nicotinamide (Sigma-Aldrich, cat. N0636), 1X B-27 supplement (Thermo Fisher Scientific, cat. 17504044), 1X N-2 supplement (Thermo Fisher Scientific, cat. 17502048), 50 ng/mL human EGF (Thermo Fisher Scientific, cat. PHG0311), and 10 microM Y-27632 dihydrochloride (Tocris Bioscience, cat. 1254). The K12877-001-R-J1-PDC line was cultured in 6I media, which includes all 6C/Colon 1B media plus 10 ng/mL human FGF-10 (PeproTech, cat. 100-26), 1 ng/mL human FGF-2 (PeproTech, cat. 100-18B), 1 µM prostaglandin E2 (Tocris Bioscience, cat. 2296), […] hydrocortisone (Sigma-Aldrich, cat. H4001), and […] bovine insulin (Sigma-Aldrich, cat. I6634). The K86415-001-R-J1-PDC line was cultured in 6D media, which includes all 6C/Colon 1B media components minus the L-WRN conditioned media. The 485176-168-R4-J1-PDC was cultured in PANC media, which includes all 6C/Colon 1B media plus 100 ng/mL human FGF-10 (PeproTech, cat. 100-26), 500 nM SB-431542 (Selleckchem, cat. S1067), and 10 nM gastrin (Tocris Bioscience, cat. 3006). […]
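Also: spheroids exposed to agents for seven days before readout.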

Structure (SMILES) | IC50 | viability, T/C (compound alone 3.16 µM) | viability, T/C (compound alone 10 µM) | other results
CC1(C)CCC(Nc2ncc(C(F)(F)F)c(-c3c[nH]c4c(P(C)(C)=O)c(C#N)ccc34)n2)CN1 (stereo unspecified) | 14.4, 12.5, 3.86, 3.42 nM |  |  | viability, T/C (compound alone 0.000949 µM): 114, 118, 106, 92%; viability, T/C (compound alone 0.003 µM): 87.4, 75.5, 54.4, 53%; viability, T/C (compound alone 0.00949 µM): 52.8, 53.1, 34.9, 27.3%
CCN1CCN(Cc2ccc(Nc3ncc(F)c(-c4cc(F)c5nc(C)n(C(C)C)c5c4)n3)nc2)CC1 | 734, 851, 225, 412 nM |  |  | 
NC1c2ccccc2OC12CCN(c1cnc3c(N4CCCc5ncccc54)n[nH]c3n1)CC2 (stereo unspecified) |  | 79.7, 87.3, 58.6, 64.1% | 83.6, 94.4, 61.6, 66.1% | viability, T/C (compound alone 0.316 µM): 85.2, 86, 70.5, 59.5%
CCC(CC)c1cc(NC2CCC(N)C2)n2nccc2n1 (stereo unspecified) |  |  |  | viability, T/C (compound alone 1 µM): 140, 113, 137, 131%
Cc1nc(N2CCC3(CC2)COC(C)C3N)c(CO)nc1Sc1ccnc(N)c1Cl (stereo unspecified) |  | 87.1, 86, 71.1, 56.7% | 76.2, 81.4, 61.7, 56.4% | 
